According to the RNAGym collection of RNA variant scans (doi:10.1093/nar/gkz1192):
Read counts are not given, so values of variants with three or more changes are uncertain.

B1: CPEB3 Ribozyme (parent)
chain: UAACAGGGGGCCACAGCAGAAGCGUUCACGUCGCAGCCCCUGUCAGAUUCUGGUGAAUCUGCGAAUUCUGCUGUAUAUCUC

Variants of: B1
Test: self-cleavage, relative activity (ratio to wild type); higher = more cleavage; in vitro, sequencing
Outline: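 CPEB3 self-cleaving ribozyme mutant libraries were made by rounds of error-prone PCR, barcoded, and transcribed in vitro with T7 RNA polymerase for 5 hours at 37°C. Cleavage occurred during transcription and a 15 min DNase I step before EDTA stop. RNAs were reverse transcribed with template switching and Illumina-sequenced, with DNA sequencing mapping barcodes to variants. Relative activity is the variant's cleaved/total read fraction divided by wild type's (minimum 5 reads), averaged across three batches.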
In the case of UAACAGGGGGCCACAGCAGUAGCGUUCGCGUCGCAGCCCCUGUCAGAUUCUGGUGAAUCUGCGAAUUCUGCUGCACAUCUC [A20U A28G U74C U76C], the self-cleavage is reported as 0.
Variant UAACAGGGGGCCACAGCAGUAGCGUUCACGUCGCGGCCCCUGUCAGAUUCUGGUGAAUCUGCGAAUUCUGCUGUAUAACUC [A20U A35G U78A] has a self-cleavage of 1.05.
Work on UAACAGGGGGCCACAGCAGUAGCGUUCACGUCGCAGCCCCUGUCGGAUUCUGGUGAAUCUGCGAAUUCUGCUGUAUACCUC [A20U A45G U78C] yielded a self-cleavage of 0.23.
UAACAGGGGGCCACAGCAGUAGCGUUCACGUCGCGGCCCCUGUCAGAUUCAGGUGAAUCUGCGAAUUCAGCCGUAUAUCUC [A20U A35G U51A U69A U72C] gave a self-cleavage of 0.3.
UAACAGGGGGCCACAGCAGUAGCGUUCGCGUCGCAGCCCCUGUCAGAUUCUGGCGAAUCUGCGAAUUCUGCCGUAUAUCUC [A20U A28G U54C U72C] showed a self-cleavage of 0.4.
With UAACAGGGGGCCACAGCAGUAGCGUUCACGUCGCUGCCCCUGUCAGAUUCUGGUGAAUCCGCGAAUUCUGCUGUAUAUCAC [A20U A35U U60C U80A] the self-cleavage was 0.08.
Variant UAACAGGGGGCCACAGCAGUAGCGUUCACGUCGCUGCCCCUGUCGGAUUCUGGUGAAUCUGCGAAUUCUGCUGUAUAUCUC [A20U A35U A45G] has a self-cleavage of 0.14.
UAACAGGGGGCCACAGCAGUAGCGUUCACGUCGCAGCCCCUGUCAGAUUCUGGUGUAUCCGCGAAUUCAGCUGUAUAUCUC [A20U A56U U60C U69A] gave a self-cleavage of 0.11.
UAACAGGGGGCCACAGCAGUAGCGUUCACGUCGCAGCCCCUGUCAGAUUCUGGUGGAUCUGCGAAUUCUGCUGUAUACCUC [A20U A56G U78C] gave a self-cleavage of 0.11.
UAACAGGGGGCCACAGCAGUAGCGUUCUCGUCGCAGCCCCUGUCAGUUUCUGGUGAAUCUGCGAACUCUGCUGUAUAUCUC [A20U A28U A47U U66C] showed a self-cleavage of 0.09.
With UAACAGGGGGCCACAGCAGUAGCGUUCACGUCGCAGCCCCUGUCAGUUUCAGGUGAAUCAGCGGAUUCUGCUGUAUAUCAC [A20U A47U U51A U60A A64G U80A] the self-cleavage was 0.07.
For UAACAGGGGGCCACAGCAGUAGCGUUCUCGUCGCAGCCACAGUCAGACUCUGGUGAAUCUGCGAAUUCUGCUGUAUAUCUC [A20U A28U C39A U41A U48C], the self-cleavage was 0.13.
Work on UAACAGGGGGCCACAGCAGUAGCGUUCACGUCGCAGCCCCUGUCAGAUUCUGGUGAGUCUGCAAAUUCUGCUGUAUAUCUC [A20U A57G G63A] yielded a self-cleavage of 0.17.
Variant UAACAGGGGGCCACAGCAGUAGCGUUCACGUCGCAGCCCCUGUCAGAUUCUGGUGAGUCUGCUAAUUCUGCUGUAUAUCUC [A20U A57G G63U] has a self-cleavage of 0.08.
Work on UAACAGGGGGCCACAGCAGUAGCGUUCACGUCGCGACUCCUGUCAGAUUCUGGUGAAUCUGCGAAUUCUGCUGCAUAGCUC [A20U A35G G36A C38U U74C U78G] yielded a self-cleavage of 0.09.
For UAACAGGGGGCCACAGCAGUAGCGUUCACGUCGCGGCCCCUGUCAGGUUCUGGUGAAUCUGCGAAUUCUGCUGUAUACCUC [A20U A35G A47G U78C], the self-cleavage was 0.32.
Work on UAACAGGGGGCCACAGCAGUAGCGUUCACGUCGCAGCCCCUGUCAGAUUCUGGUGAAUCUGCGUAUUCUGCUGUACAUCCC [A20U A64U U76C U80C] yielded a self-cleavage of 0.19.
UAACAGGGGGCCACAGCAGUAGCGUUCACGUCGCAGCCCCUGUCAGAUUCUGGUGGAUCUGCGAACUCUGCUGUACAUCAC [A20U A56G U66C U76C U80A] showed a self-cleavage of 0.19.
For UAACAGGGGGCCACAGCAGUAGCGUUCACGUCGCGGCCCCUGUCAGAUUCUGGUGAUUCUGCGAAUUCUGCUGUAUGUCUC [A20U A35G A57U A77G], the self-cleavage was 0.47.
Variant UAACAGGGGGCCACAGCAGUAGCGUUCACGUCGCGGCCCCUGUCGGAUUCUGGUGAAUCUGUGAAUUCUGCUGUAUAUCUC [A20U A35G A45G C62U] has a self-cleavage of 0.27.
Variant UAACAGGGGGCCACAGCAGUAGCGUUCACGUCGCGGCCCCUGUCGGAUUCUGGUGAAUCUGAGAAUUCUGCUGUAUAUCUC [A20U A35G A45G C62A] has a self-cleavage of 0.13.
UAACAGGGGGCCACAGCAGUAGCGUUCUCGUCGCAGCCACUGUCAGAAUCUGGUGUAUCGGCGAAUUCUGCUGUAUAUCUC [A20U A28U C39A U48A A56U U60G] gave a self-cleavage of 0.07.
With UAACAGGGGGCCACAGCAGUAGCGUUCACGUCGCAGCCCCUGUCAGGUUCUGGUGAAUCUGCGAAUUCUGCUGUACAUCUC [A20U A47G U76C] the self-cleavage was 0.26.
Work on UAACAGGGGGCCACAGCAGUAGCGUUCUCGUCGCGGCCCCUGUCAGAUUCUGGUGAAUCUGCGAAUUCUGCUGUAUAUCUC [A20U A28U A35G] yielded a self-cleavage of 0.45.
For UAACAGGGGGCCACAGCAGUAGCGUUCACGUCGCAGCCCCUGUCUGAUUCUGGUGAAUCUGCGAACUCUGCUGUAUAUCUC [A20U A45U U66C], the self-cleavage was 0.17.
UAACAGGGGGCCACAGCAGUAGCGUUCUCGUCGCAGCCCCUGUCAGAUUCUGGUGAAUCUGCGAAUUCUGCUGUAUAUCAC [A20U A28U U80A] gave a self-cleavage of 0.32.
In the case of UAACAGGGGGCCACAGCAGUAGCGUUCACGUCGCGGCCCCUGUCGGAUUCCGGUGAAUCUGCGAGUUCUGCUGUAUACCUC [A20U A35G A45G U51C A65G U78C], the self-cleavage is reported as 0.16.
UAACAGGGGGCCACAGCAGUAGCGUUCACGUCGCAGCCCCUGUCAGAUUCUGGUGAAUCUGCGUACUCUGCCGUAUAUCUC [A20U A64U U66C U72C] gave a self-cleavage of 0.11.
Work on UAACAGGGGGCCACAGCAGUAGCGUUCACGUCGCAGCCCCUGUCAGAUUCUGGUGUAUCUGCGAGUCCUGCUGUUUAUCUC [A20U A56U A65G U67C A75U] yielded a self-cleavage of 0.21.
Work on UAACAGGGGGCCACAGCAGUAGCGUUCACGUCGCAGCCCCUGUCUGAUACUGGUGAAUCUGCGAAUUCUGCUGUAUAUCUC [A20U A45U U49A] yielded a self-cleavage of 0.07.
Work on UAACAGGGGGCCACAGCAGUAGCGUUCACGUCGCGGCCCCUGUCUGAUUCUGGUGAACAUGCGAAUUCUGCUGUACAUCUC [A20U A35G A45U U58C C59A U76C] yielded a self-cleavage of 0.17.
In the case of UAACAGGGGGCCACAGCAGUAGCGUUCGCGUCGCAGCCCCUGUCAGAAUUUGGUUAAUCUGCGAGUUCUGCUGUAUAUCUC [A20U A28G U48A C50U G55U A65G], the self-cleavage is reported as 0.08.
Work on UAACAGGGGGCCACAGCAGUAGCGUUCACGUCGCAGCCCCUGUCUGAUUCUGGUGAAUCUGCGAAUUCGGCUGUAUAUCUC [A20U A45U U69G] yielded a self-cleavage of 0.12.
For UAACAGGGGGCCACAGCAGUAGCGUUCUCGCCGCAGCCCCUGUCAGGUUCUGGUGUAUCUGCGAAUUCUGCUGUAUACCUC [A20U A28U U31C A47G A56U U78C], the self-cleavage was 0.06.
